Reference: the antibiotic and cytotoxicity screens of Wong et al. (2023)
This is one part of the list.

Legend:
HSkMC = human skeletal muscle cells; experiment: cytotoxicity call (relative viability < 0.9); settings: 10 µM
S. aureus RN4220 = experiment: growth inhibition call (relative growth <= 0.2); settings: 50 µM

| SMILES | cytotoxicity call (HSkMC) | growth inhibition call (S. aureus RN4220) |
| --- | --- | --- |
| C[C@@H]1CCCCO[C@@H](CN(C)C(=O)Nc2cccc3ccccc23)[C@@H](C)CN([C@H](C)CO)C(=O)c2cc(NS(=O)(=O)c3cn(C)cn3)ccc2O1 | inactive | inactive |
| C[C@@H]1CCCCO[C@H](CN(C)C(=O)Nc2ccc(F)cc2)[C@@H](C)CN([C@H](C)CO)C(=O)c2cc(NC(=O)Nc3ccc(F)cc3)ccc2O1 | inactive | inactive |
| C[C@H](CO)N1C[C@H](C)[C@@H](CN(C)Cc2ccc(C(=O)Nc3ccccc3N)cc2)OCc2cnnn2CCCC1=O | inactive | inactive |
| CO[C@@H]1CN(C)C(=O)c2ccc(NC(=O)C3CC3)cc2OC[C@@H](C)N(C(=O)C2CCOCC2)C[C@H]1C | inactive | inactive |
| Cc1cc(C(=O)O)c(=O)[nH]c1C | inactive | inactive |
| C[C@@H]1CCCCO[C@H](CN(C)S(=O)(=O)c2cccs2)[C@@H](C)CN([C@H](C)CO)C(=O)c2cc(NC(=O)Nc3ccc(F)cc3)ccc2O1 | inactive | inactive |
